Data published in PubChem BioAssay (NCI).
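How tested: cells in 96-well plates exposed to compound for 48 hours at five concentrations. Abbreviation: GI50, concentration required for 50% inhibition of growth.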 Some entries of the source have several records that differ or are many. Only these are listed. There may be further records. For some of these results: The records of an entry repeat one measurement across runs, samples, wells, individuals or studies. Brackets tell where a record comes from. Letters count within one entry.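 TGI is the concentration that stops growth completely.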 For some of these results: The tests behind the records often covered other concentration ranges, which the source does not state; some values may only mark the edge of a range.

How the values were obtained:
Assay in all cases: NCI-60 cell line screen, 48 h
NCI-H522 lung = test system: NCI-H522 lung
DMS 114 small cell lung = test system: DMS 114 small cell lung
HCT-15 colon = test system: HCT-15 colon
SW-620 colon = test system: SW-620 colon
MDA-MB-231 breast = test system: MDA-MB-231 breast
EKVX NSCLC = test system: EKVX NSCLC
NCI-H226 lung = test system: NCI-H226 lung
HCC-2998 colon = test system: HCC-2998 colon
SNB-75 CNS = test system: SNB-75 CNS
U251 CNS = test system: U251 CNS
RPMI-8226 leukemia = test system: RPMI-8226 leukemia
OVCAR-8 ovarian = test system: OVCAR-8 ovarian
MDA-N = test system: MDA-N
COLO 205 colon = test system: COLO 205 colon
SR leukemia = test system: SR leukemia
786-0 renal = test system: 786-0 renal
UACC-257 melanoma = test system: UACC-257 melanoma
HT29 colon = test system: HT29 colon
SK-MEL-5 melanoma = test system: SK-MEL-5 melanoma
T-47D breast = test system: T-47D breast
KM12 colon = test system: KM12 colon
NCI-H460 lung = test system: NCI-H460 lung
A549 NSCLC = test system: A549 NSCLC
CAKI-1 renal = test system: CAKI-1 renal
MALME-3M melanoma = test system: MALME-3M melanoma
SNB-19 CNS = test system: SNB-19 CNS
ACHN renal = test system: ACHN renal
UACC-62 melanoma = test system: UACC-62 melanoma
M14 melanoma = test system: M14 melanoma
DU-145 prostate = test system: DU-145 prostate
SK-OV-3 ovarian = test system: SK-OV-3 ovarian
SF-268 CNS = test system: SF-268 CNS
RXF 393 renal = test system: RXF 393 renal
K-562 leukemia = test system: K-562 leukemia
LOX IMVI melanoma = test system: LOX IMVI melanoma
SK-MEL-2 melanoma = test system: SK-MEL-2 melanoma
OVCAR-4 ovarian = test system: OVCAR-4 ovarian
TK-10 renal = test system: TK-10 renal
MCF7 breast = test system: MCF7 breast
BT-549 breast = test system: BT-549 breast
HS 578T breast = test system: HS 578T breast
OVCAR-5 ovarian = test system: OVCAR-5 ovarian
MDA-MB-435 = test system: MDA-MB-435
IGROV1 ovarian = test system: IGROV1 ovarian
A498 renal = test system: A498 renal
SN12C renal = test system: SN12C renal
HL-60(TB) leukemia = test system: HL-60(TB) leukemia
NCI-H23 lung = test system: NCI-H23 lung
SK-MEL-28 melanoma = test system: SK-MEL-28 melanoma
MOLT-4 leukemia = test system: MOLT-4 leukemia
UO-31 renal = test system: UO-31 renal
HOP-62 NSCLC = test system: HOP-62 NSCLC
PC-3 prostate = test system: PC-3 prostate
OVCAR-3 ovarian = test system: OVCAR-3 ovarian
SF-539 CNS = test system: SF-539 CNS

O=C(CCN1CCCCC1)C(=Cc1ccccc1)C(=O)CCN1CCCCC1
TGI (NCI-H522 lung): 2.52 µM and 28.6 µM
TGI (DMS 114 small cell lung): 7.34 µM and > 100 µM
TGI (HCT-15 colon): 9.33 µM and > 100 µM
TGI (SW-620 colon): 3.59 µM and > 69.5 µM

C[C@@H](Oc1cc(-n2cnc3ccc(CN4CCN(C)CC4)cc32)sc1C(N)=O)c1ccccc1C(F)(F)F
GI50 (MDA-MB-231 breast): 166 nM [sample A, mean of 2 tests] and 15.1 nM [sample B, mean of 2 tests]
GI50 (EKVX NSCLC): 2.77 µM [sample A, 1 test] and 62.4 nM [sample B, mean of 2 tests]
GI50 (NCI-H226 lung): 71.4 nM [sample A, mean of 2 tests] and 3.18 µM [sample B, 1 test]
TGI (HCC-2998 colon): 380 nM [sample A, mean of 2 tests] and > 10 µM [sample B, mean of 2 tests]
TGI (SNB-75 CNS): 13.3 µM [sample A, 1 test] and 313 nM [sample B, 1 test]

NC(N)=NS(=O)(=O)c1ccc(Nc2c3ccccc3nc3c(C(=O)NCCO)cccc23)cc1
TGI (U251 CNS): 744 nM and > 100 µM
TGI (RPMI-8226 leukemia): 500 nM and 59.7 µM
TGI (OVCAR-8 ovarian): 540 nM and > 100 µM
TGI (NCI-H522 lung): 306 nM and 33.9 µM
TGI (MDA-N): 801 nM and 49.5 µM
TGI (HCT-15 colon): 697 nM and > 100 µM
TGI (COLO 205 colon): 316 nM and > 100 µM
TGI (SR leukemia): 576 nM and > 100 µM
TGI (786-0 renal): 483 nM and > 100 µM
TGI (UACC-257 melanoma): 569 nM and > 100 µM
TGI (HT29 colon): 347 nM and 80.4 µM
TGI (SK-MEL-5 melanoma): 276 nM and 33.4 µM
TGI (MDA-MB-231 breast): 533 nM and 64.9 µM
TGI (T-47D breast): 458 nM and 45.7 µM
TGI (KM12 colon): 363 nM and 36.1 µM
TGI (NCI-H460 lung): 356 nM and 37.1 µM
TGI (A549 NSCLC): 421 nM and 54.3 µM
TGI (CAKI-1 renal): 511 nM and 53.4 µM
TGI (MALME-3M melanoma): 293 nM and 33.7 µM
TGI (SNB-19 CNS): 703 nM and > 100 µM
TGI (SW-620 colon): 507 nM and 60.1 µM
TGI (ACHN renal): 719 nM and > 100 µM
TGI (UACC-62 melanoma): 365 nM and 44.1 µM
TGI (M14 melanoma): 419 nM and 64.1 µM
TGI (DU-145 prostate): 705 nM and 48.1 µM
TGI (SK-OV-3 ovarian): 801 nM and > 100 µM
TGI (SF-268 CNS): 381 nM and 39 µM
TGI (RXF 393 renal): 369 nM and 43.6 µM
TGI (K-562 leukemia): 584 nM and 98.6 µM
TGI (LOX IMVI melanoma): 273 nM and > 100 µM
TGI (SK-MEL-2 melanoma): 355 nM and 46.1 µM
TGI (EKVX NSCLC): 834 nM and 68.9 µM
TGI (OVCAR-4 ovarian): 740 nM and 56.1 µM
TGI (TK-10 renal): 715 nM and 55.9 µM
TGI (MCF7 breast): 137 nM and 43.8 µM
TGI (BT-549 breast): 290 nM and > 100 µM
TGI (HS 578T breast): 530 nM and 85.1 µM
TGI (OVCAR-5 ovarian): 640 nM and 58.9 µM
TGI (MDA-MB-435): 346 nM and 53.6 µM
TGI (IGROV1 ovarian): 422 nM and 47.7 µM
TGI (A498 renal): 345 nM and 39.1 µM
TGI (SN12C renal): 683 nM and 86.7 µM
TGI (HL-60(TB) leukemia): 749 nM and 47.9 µM
TGI (NCI-H23 lung): 332 nM and 80.3 µM
TGI (SK-MEL-28 melanoma): 565 nM and 42.6 µM
TGI (HCC-2998 colon): 365 nM and 24.7 µM
TGI (MOLT-4 leukemia): 513 nM and > 100 µM
TGI (UO-31 renal): 473 nM and 57.2 µM
TGI (HOP-62 NSCLC): 433 nM and 61.7 µM
TGI (PC-3 prostate): 693 nM and 56.3 µM
TGI (OVCAR-3 ovarian): 382 nM and 44.4 µM
TGI (SF-539 CNS): 429 nM and 85.1 µM
